Experimental data reported in patent US20240139156A1, “COMBINATION TREATING PROSTATE CANCER, PHARMACEUTICAL COMPOSITION AND TREATMENT METHOD” (KANGPU BIOPHARMACEUTICALS, LTD., priority 2017, published 2024).

System: Vcap cells (androgen receptor (+) prostate cancer cells)
Experiment: CTG cell proliferation assay (CellTiter-Glo), compounds alone or in combination
Conditions: for viability at 1 µM / viability at 10 µM: Homo sapiens, VCaP, 120 h, read-out: Survival rate of Vcap cells; for effect of tested compound in combination with the other therapeutic agents (prednisone, Galeterone, Abiraterone acetate, ODM-201): Vcap cell survival, without B001, summary in words
[1] = 1 μM tested compound in combination with 1 μM Abiraterone acetate
[2] = 1 μM tested compound in combination with 1 μM B001
[3] = 1 μM tested compound in combination with 1 μM B001 and 1 μM Abiraterone acetate
[4] = 1 μM tested compound in combination with 1 μM B001 and 1 μM Galeterone
[5] = 1 μM tested compound in combination with 1 μM B001 and 1 μM ODM-201
[6] = 1 μM tested compound in combination with 1 μM B001 and 1 μM prednisone
[7] = 1 μM tested compound in combination with 1 μM B001 and 1 μM prednisone and 1 μM Abiraterone acetate
[8] = 1 μM tested compound in combination with 1 μM B001 and 1 μM prednisone and 1 μM Galeterone
[9] = 1 μM tested compound in combination with 1 μM B001 and 1 μM prednisone and 1 μM ODM-201
[10] = 1 μM tested compound in combination with 1 μM Galeterone
[11] = 1 μM tested compound in combination with 1 μM ODM-201
[12] = 1 μM tested compound in combination with 1 μM prednisone
[13] = 10 μM tested compound in combination with 1 μM Abiraterone acetate
[14] = 10 μM tested compound in combination with 1 μM B001
[15] = 10 μM tested compound in combination with 1 μM B001 and 1 μM Abiraterone acetate
[16] = 10 μM tested compound in combination with 1 μM B001 and 1 μM Galeterone
[17] = 10 μM tested compound in combination with 1 μM B001 and 1 μM ODM-201
[18] = 10 μM tested compound in combination with 1 μM B001 and 1 μM prednisone
[19] = 10 μM tested compound in combination with 1 μM B001 and 1 μM prednisone and 1 μM Abiraterone acetate
[20] = 10 μM tested compound in combination with 1 μM B001 and 1 μM prednisone and 1 μM Galeterone
[21] = 10 μM tested compound in combination with 1 μM B001 and 1 μM prednisone and 1 μM ODM-201
[22] = 10 μM tested compound in combination with 1 μM Galeterone
[23] = 10 μM tested compound in combination with 1 μM ODM-201
[24] = 10 μM tested compound in combination with 1 μM prednisone

Row | Compound | Survival rate of Vcap cells [1] [%] | Survival rate of Vcap cells [3] [%] | Survival rate of Vcap cells [4] [%] | Survival rate of Vcap cells [5] [%] | Survival rate of Vcap cells [6] [%] | Survival rate of Vcap cells [7] [%] | Survival rate of Vcap cells [8] [%] | Survival rate of Vcap cells [9] [%] | Survival rate of Vcap cells [10] [%] | Survival rate of Vcap cells [11] [%] | Survival rate of Vcap cells [12] [%] | Survival rate of Vcap cells [13] [%] | Survival rate of Vcap cells [14] [%] | Survival rate of Vcap cells [15] [%] | Survival rate of Vcap cells [16] [%] | Survival rate of Vcap cells [17] [%] | Survival rate of Vcap cells [18] [%] | Survival rate of Vcap cells [19] [%] | viability at 1 µM [%] | viability at 10 µM [%] | also measured
1 | CC1(C)C(=O)N(c2ccc(C#N)c(C(F)(F)F)c2)C(=S)N1c1ccc(OCC(O)CO)c(F)c1 (centres unmarked) [AR3-2] | 70.8 | 46.9 | 47.9 | 50.3 | 56.4 | 57.0 | 56.2 | 56.3 | 73.4 | 71.7 | 77.1 | 53.9 | 42.044 | 38.4 | 40.5 | 44.6 | 39.3 | 43.4 | 76 | 62.8 | Survival rate of Vcap cells [2]: 51.248%; Survival rate of Vcap cells [20]: 45.7%; Survival rate of Vcap cells [21]: 49.8%; Survival rate of Vcap cells [22]: 58.6%; Survival rate of Vcap cells [23]: 62.5%; Survival rate of Vcap cells [24]: 57.6%; effect of tested compound in combination with the other therapeutic agents (prednisone, Galeterone, Abiraterone acetate, ODM-201): did not improve significantly
2 | C[C@]12CC[C@H](O)CC1=CC[C@@H]1[C@@H]2CC[C@]2(C)C(n3cnc4ccccc43)=CC[C@@H]12 [Galeterone, reference compound] |  |  |  |  |  |  |  |  |  |  |  |  |  |  |  |  |  |  |  |  | Survival rate of Vcap cells (tested compound alone, 1 μM, 5 days): 79.7%; Survival rate of Vcap cells (tested compound alone, 10 μM, 5 days): 33.4%
3 | CC1(C)C(=O)N(c2ccc(C#N)c(C(F)(F)F)c2)C(=S)N1c1ccc(OCC2(N)CC2)c(F)c1 [AR3-1] | 72.8 | 49.6 | 48.4 | 51.4 | 57.9 | 55.8 | 54.5 | 52.7 | 74.3 | 76.1 | 81.6 | 54.9 | 41.310 | 39.2 | 38.2 | 44.0 | 40.8 | 37.5 | 76.5 | 56.5 | Survival rate of Vcap cells [2]: 53.800%; Survival rate of Vcap cells [20]: 37.9%; Survival rate of Vcap cells [21]: 42.6%; Survival rate of Vcap cells [22]: 55.9%; Survival rate of Vcap cells [23]: 62.2%; Survival rate of Vcap cells [24]: 57.9%; effect of tested compound in combination with the other therapeutic agents (prednisone, Galeterone, Abiraterone acetate, ODM-201): did not improve significantly
4 | CNC(=O)c1ccc(N2C(=S)N(c3ccc(C#N)c(C(F)(F)F)c3F)C(=O)C2(C)C)cc1F [AR2-1] | 69.2 | 51.5 | 52.8 | 53.5 | 60.5 | 43.7 | 47.3 | 42.9 | 71.8 | 72.9 | 77.7 | 58.3 | 46.508 | 47.1 | 48.7 | 51.0 | 48.4 | 37.8 | 74 | 61.3 | Survival rate of Vcap cells [2]: 54.401%; Survival rate of Vcap cells [20]: 37.6%; Survival rate of Vcap cells [21]: 41.2%; Survival rate of Vcap cells [22]: 58.3%; Survival rate of Vcap cells [23]: 61.4%; Survival rate of Vcap cells [24]: 58.5%; effect of tested compound in combination with the other therapeutic agents (prednisone, Galeterone, Abiraterone acetate, ODM-201): did not improve significantly
5 | CC(=O)O[C@H]1CC[C@@]2(C)C(=CC[C@@H]3[C@@H]2CC[C@]2(C)C(c4cccnc4)=CC[C@@H]32)C1 [Abiraterone acetate, reference compound] |  |  |  |  |  |  |  |  |  |  |  |  |  |  |  |  |  |  | 86.6 | 54.1 | 
6 | CC1(C)C(=O)N(c2ccc(C#N)c(C(F)(F)F)c2)C(=S)N1c1ccc(OCCO)cc1 [AR3-4] | 73.6 | 48.2 | 49.4 | 50.4 | 54.0 | 46.8 | 52.0 | 46.4 | 76.1 | 78.3 | 82.2 | 64.5 | 47.983 | 41.9 | 43.7 | 46.9 | 44.0 | 40.8 | 77 | 66.1 | Survival rate of Vcap cells [2]: 52.699%; Survival rate of Vcap cells [20]: 46.6%; Survival rate of Vcap cells [21]: 45.5%; Survival rate of Vcap cells [22]: 68.1%; Survival rate of Vcap cells [23]: 68.4%; Survival rate of Vcap cells [24]: 69.1%; effect of tested compound in combination with the other therapeutic agents (prednisone, Galeterone, Abiraterone acetate, ODM-201): did not improve significantly
7 | CNC(=O)c1ccc(N2C(=S)N(c3ccc(C#N)c(OC)c3)C(=O)C23CCC3)cc1F [AR2-2] | 74.3 | 47.4 | 43.6 | 47.4 | 50.5 | 46.4 | 46.2 | 46.9 | 70.9 | 75.0 | 79.5 | 66.9 | 41.974 | 38.8 | 38.7 | 41.8 | 37.3 | 35.6 | 65.7 | 57.9 | Survival rate of Vcap cells [20]: 35.2%; Survival rate of Vcap cells [21]: 40.5%; Survival rate of Vcap cells [22]: 65.2%; Survival rate of Vcap cells [23]: 68.1%; Survival rate of Vcap cells [24]: 64.0%; effect of tested compound in combination with the other therapeutic agents (prednisone, Galeterone, Abiraterone acetate, ODM-201): did not improve significantly
8 | CC(O)c1cc(C(=O)N[C@@H](C)Cn2ccc(-c3ccc(C#N)c(Cl)c3)n2)[nH]n1 (some centres unmarked) [ODM-201, reference compound] |  |  |  |  |  |  |  |  |  |  |  |  |  |  |  |  |  |  | 67.9 | 67.6 | 
